Reference: the supplement of paper PMC11417369
± gives the standard deviation of the averaged measurements. The list shows a part of the results.

test system: PfAP2-G AP2 domain (GST-tagged); test: gcPBM binding intensity (ln(normalized median fluorescence intensity)); higher = stronger DNA binding
How it was run: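 Each value is the highest Masliner-normalised natural-log median intensity across replicate spots of either orientation of a probe. The probes were primer-extended double-stranded 36-bp intergenic genomic sequences on an Agilent 4 × 180k array, alongside negative controls, exposed for 1 h to GST-tagged P. falciparum DNA-binding domains expressed in E. coli. Bound protein was picked up with Alexa488 anti-GST antibody and scanned at 488 nm.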

| Sequence | gcPBM binding intensity (ln) |
| --- | --- |
| TACCATATTTCTTCAAGTACGCATTATGTTAAAAAG [XGTACX_site345] | 11.3 ± 0.84 |
| TACATATATTTTTATACATGCATAACTTAGGACTTT [TGCATGCA_site113] | 9.855 ± 0.064 |
| ATATTTATATATATCATACACACTAATATGTATATT [CACACA_site3409] | 9.865 ± 0.007 |
| TCCTTTTTGAAATGTTGTACTTTTTTTATCTTTCAT [XGTACX_site953] | 11.5 ± 0.67 |
| TTTTTTTAATAGTGTGCACACAATATACAGAAAAAA [CACACA_site8399] | 10.7 ± 0.49 |
| GCAATTTTTTTTAAGAGTACTAATATATTATAGTGG [XGTACX_site7316] | 11.1 ± 0.81 |
| ATATATATATATATATGTACATATGTTTGTTTCCGC [XGTACX_site5167] | 11.1 ± 0.83 |
| CATACATACATACATACATGCATACATACATACATA [TGCATGCA_site218] | 10.5 ± 0.47 |
| CATAATTTAAAAAAGGTGCAAAATGGATAATATATA [GTGCAC_site9657] | 10.4 ± 0.2 |
| TTTTTTTTCATTTTATGTACACATAATTTAATATAT [XGTACX_site5768] | 11.6 ± 0.93 |
| AAAAAGTGACTCCTTACACACTTTACATAATTTAGG [CACACA_site8176] | 10.2 ± 0.19 |
| ATATACATATATATATGTACTTATTTATTTATTTAT [XGTACX_site2532] | 11.3 ± 0.84 |
| AAAAAAATTAAAAATTAAAATTAAAAATAATATATA [GTGCAC_negctrl_site466] | 9.32 ± 0.14 |
| AATGTATAAATCCATACACACATAAATTTTAATAAT [CACACA_site2363] | 9.99 ± 0.16 |
| TAATTTCTTTAGGGGGTGCTTTTATAGTTTTTATTA | 11.2 ± 0.64 |
| TTCATAAAATGTGTCTGTACGTAAATGTATTACACT [XGTACX_site3179] | 11.5 ± 0.74 |
| CTGTCTGCAGATATGGTGCATTTGTAAGATCTTACA [GTGCAC_site9870] | 10.11 ± 0.092 |
| TTTATATTTATGATGGGTACACAAAATTTTACCCAT [XGTACX_site1504] | 11.6 ± 0.93 |
| TTTAGTTGTGAGAATTGTACATATTTTCCTTTTACC [XGTACX_site7291] | 11 ± 0.67 |
| TATATACCTATATACACACACATATATTATAGATAT [CACACA_site6266] | 9.895 ± 0.064 |
| AACATTATATATTGCAGTACTCCCATATGTTGATAA [XGTACX_site3119] | 11.2 ± 0.81 |
| ATATATATATATATATGTACACATAAAAAGAAAGAA [XGTACX_site1603] | 11.7 ± 1.1 |
| GATCTATACTATAATACACACATTTGATGAATGTAA [CACACA_site6163] | 9.96 ± 0.099 |

| Sequence | gcPBM binding intensity (ln) |
| --- | --- |
| TATATATATGAACAATGTACGTATAATATTTTTATT [XGTACX_site7561] | 11.3 ± 0.76 |
| ATTAAAAAAAATATATATGTATAAAACAAGCAAAAT [XGTACX_negctrl_site474] | 9.86 ± 0.028 |
| TACACAAACAAACACACACACACACCCCCACAAAAA [CACACA_site2428] | 11 ± 0.53 |
| GACCACTTTAGGATTTGTACACATATTATATATGCA [XGTACX_site6579] | 11.3 ± 0.84 |
| ATATAAGAAAAGCACACACACACAAAAAAAAAAAAA [CACACA_site2827] | 10.1 ± 0.43 |
| TAGCCATTTTTATATTGTACTTATATAATCACATTT [XGTACX_site4407] | 11.3 ± 0.84 |
| ATAAAAAAAAATAACACACAGACATAAGAATAAATA [CACACA_site4162] | 10.01 ± 0.014 |
| TGAAAAAAAAAATACACACACGAGTTGTTATACATA [CACACA_site7486] | 9.79 ± 0.15 |
| GTTTTTAATGTTTTGACATGCAATATTAAAAATAAT [TGCATGCA_site174] | 9.95 ± 0.2 |
| AACAGATATGAATAGAAAAAAAAAAATGGCCCATAT [TGCATGCA_negctrl_site443] | 10.2 ± 0.2 |
| ATTAAAAAAATTGGCACACATAAAAATATATAAAAA [CACACA_site2748] | 10.3 ± 0.39 |
| CCTATTATTTCTAAAACACACAAAAATATAAAAGAA [CACACA_site2708] | 10.2 ± 0.14 |
| ATAATATTATTTAAAAGTACTAACAAAAGAATATTA [XGTACX_site4989] | 11.2 ± 0.67 |
| TCTTTTTTTTATTATATCATTGAAATGTTAAAACGA [XGTACX_negctrl_site473] | 9.91 ± 0.12 |
| TATAATGATAATAATAGTACACATTAGAACGGGAGG [XGTACX_site2563] | 11.3 ± 0.66 |
| TATAATAATAAAAACACACACGTTGATTGTATTAGC [CACACA_site5336] | 9.87 ± 0.057 |
| TTTTGATAGAAGTGTTCTAGGAATTCAACTGTAATA [GTGCAC_negctrl_site585] | 10 ± 0.15 |
| CAGCTCTTAAGAATTACACACATATACACATATATA [CACACA_site7524] | 9.91 ± 0.11 |
| ATACATAAATACAAACGTACATACATACATACATAC [XGTACX_site7824] | 11.2 ± 0.67 |
| GCAACACAAAAAATTACACACAAAAAAAATATATTA [CACACA_site916] | 9.94 ± 0.13 |
| TCCTTTATTTTTAAAGTGCATATACATGTACATTAT [GTGCAC_site9445] | 11 ± 0.69 |
| GAAGAAAAAAAATATACACACATACGATCATACATA [CACACA_site5227] | 10.06 ± 0.035 |
